# Assay results published in PMC6919601, “Identification of Plasmodium dipeptidyl aminopeptidase allosteric inhibitors by high throughput screening” (PLoS ONE, 2019).
# Out of some 110,000 compounds screened, about 230 (0.21%) showed an effect of 50% or more. Some of the results follow.
# Target: DPAP1 (Plasmodium falciparum, UniProt Q8IIJ9)
# Test: primary screen, percent inhibition; read by cleavage of a fluorogenic dipeptide substrate; higher = more effect of the substance
# Parameters: species or system P. falciparum D10 trophozoite lysates; single well
# 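Further: 30 min substrate incubation versus DMSO and 10 µM JCP410 controls.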
# Sequence of DPAP1 (Q8IIJ9 whole entry, looked up): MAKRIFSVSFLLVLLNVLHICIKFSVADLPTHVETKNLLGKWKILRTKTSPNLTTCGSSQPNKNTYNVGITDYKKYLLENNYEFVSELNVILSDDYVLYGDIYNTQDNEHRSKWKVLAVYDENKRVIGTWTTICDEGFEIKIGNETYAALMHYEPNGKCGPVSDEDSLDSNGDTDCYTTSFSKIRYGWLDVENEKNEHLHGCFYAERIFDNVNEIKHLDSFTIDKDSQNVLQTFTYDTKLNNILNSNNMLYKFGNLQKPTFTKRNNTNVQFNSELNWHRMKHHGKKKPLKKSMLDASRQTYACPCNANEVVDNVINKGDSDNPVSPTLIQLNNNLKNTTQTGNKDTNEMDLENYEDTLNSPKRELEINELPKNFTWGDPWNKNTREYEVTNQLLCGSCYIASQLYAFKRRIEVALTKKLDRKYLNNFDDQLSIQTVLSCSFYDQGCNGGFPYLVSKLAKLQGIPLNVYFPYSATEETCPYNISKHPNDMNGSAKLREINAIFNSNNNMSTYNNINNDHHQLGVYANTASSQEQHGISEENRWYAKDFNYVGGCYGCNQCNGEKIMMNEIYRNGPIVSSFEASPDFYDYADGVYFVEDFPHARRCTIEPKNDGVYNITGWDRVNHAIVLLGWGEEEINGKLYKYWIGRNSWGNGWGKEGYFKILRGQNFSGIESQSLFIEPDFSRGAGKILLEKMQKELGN
row,Compound,% Inhibition @ 10 uM [%]
1,COc1ccc(CC(=O)Nc2cccc3c(NC(=O)Cc4ccc(OC)cc4)cccc23)cc1,2.27
2,CC1Cn2c(C(=O)N3CCc4ccccc4C3)cc3c(Cl)ccc(c32)O1 (stereo not drawn),4.83
3,COc1ccc(/C=C2\CCCC3=C2OC(N)=C(C#N)C3c2ccc(OC)cc2)cc1 (stereo not drawn),-0.988
4,Cc1nc2ccccn2c1C(=O)NC1CCCCC1,3.01
5,Cc1ccc(C(C#N)NC(=O)[C@H](CC(C)C)NC(=O)c2ccc(OC(F)(F)F)cc2)o1 (stereo partly drawn),-1.41
6,CC1=CC(C(F)(F)F)(C(F)(F)F)C(C#N)=C(N)N1c1ccc(C(N)=O)cc1,1.02
7,CCn1c(COc2ccccc2C(N)=O)nc2ccccc21,-5.4
8,CCCN1CCC(N(C)CC(O)c2ccccc2)CC1 (stereo not drawn),-3.15
9,Cc1c(C(=O)Nc2ccc(F)cc2)cccc1[N+](=O)[O-],4.03
10,COc1cccc(/C(O)=C/c2nc3ccc(C(=O)N4CCOCC4)cc3nc2O)c1,-19.9
11,Cc1ccc(S(=O)(=O)NCC(=O)N(C)Cc2ccccc2)cc1,5.99
12,CCN1CCN(CCNC(=O)CSCc2nc(-c3ccc(OC)c(OC)c3)oc2C)CC1,2.37
13,CC(C)CNC1CC(=O)N(c2ccc(C(C)C)cc2)C1=O (stereo not drawn),4.75
14,O=C(COc1ccc([N+](=O)[O-])cc1)N1CCCCC1,11.4
15,O=C(Nc1nc2ccc(F)cc2s1)c1cccnc1,-4.49
16,CCOC(=O)c1cc(-c2ccccc2)n(-c2cccc(C(=O)N3CCCC3)c2)c1C,1.2
17,O=C(Cn1c2ccccc2c2cnnc(O)c21)NCCCc1ccccc1,-0.281
18,O=C(Nc1cnc2ccccc2c1)c1cccc(C(=O)Nc2cnc3ccccc3c2)c1,5.32
19,C=CCn1c(SCC(=O)Nc2ncc(Cc3ccc(Cl)cc3)s2)nnc1-c1ccncc1,1.03
20,Cc1ccc2onc(CNC(=O)NCCc3ccsc3)c2c1,-5.85
21,O=C(O)c1ccccc1C(=O)NCCc1ccccc1,-1.97
22,CC1CCc2c(C(=O)NCCCN(Cc3ccccc3)C(C)C)csc2C1 (stereo not drawn),-5.05
23,COc1ccc(N(CC(=O)NC2CC3CCC2C3)S(=O)(=O)c2ccc(C)cc2)cc1Cl (stereo not drawn),0.931
24,COc1ccc(OC)c(NC(=O)C2CCCCC2C(=O)O)c1 (stereo not drawn),-7.46
25,N#Cc1c(NC(=O)C2CC=CCC2C(=O)O)sc2c1CCCCCC2 (stereo not drawn),2.69

row,Compound,% Inhibition @ 10 uM [%]
1,O=C(Cn1cc(C(=O)C(F)(F)F)c2cc(Br)ccc21)NC1CCCC1,2.19
2,CC(=O)/C=C/c1oc2ccc([N+](=O)[O-])cc2c1-c1ccc(C)o1,7.61
3,CCOc1ccc(C2C(=O)N(C3CCCCC3)CC(=O)N2CC2CCCO2)cc1OC (stereo not drawn),-2.14
4,CC(C)Cn1cc(NC(=O)NCc2ccc3c(c2)OCO3)c2ccccc2c1=O,-3.45
5,O=C(NCc1ccc(F)cc1)c1ccc2c(Cl)c3c(nc2c1)CCC3,-2.19
6,O=C(CCc1ccc(S(=O)(=O)NC2CCCCC2)cc1)Nc1ccccc1,6.92
7,COCCN1C(=O)C(O)=C(C(=O)c2ccccc2)C1c1ccccc1OC (stereo not drawn),3.04
8,CCC(CC)NCc1ccc(OC)c(C)c1OC,-8.36
9,Nc1ncnc(NCCc2ccccc2)n1,-3.53
10,Cc1nn(CCCC(=O)N2CCN(C)CC2)c(=O)c2cc3sccc3n12,-1.58
11,CC(C)OCCCNC(=O)c1cnn(-c2ccccc2)c1-n1cccc1,0.137
12,[O-]/[N+](=C\c1cc(Br)ccc1O)c1ccccc1,-1.84
13,CCCn1c2ccccc2n2cc(-c3ccc(F)cc3)nc12,3.74
14,CCCCSC1=C(C#N)C(=O)NC(c2ccc(N(C)C)cc2)S1 (stereo not drawn),7.04
15,Cc1oc(-c2ccc(Cl)cc2)nc1CS(=O)CC(=O)NCCCN1CC(C)CC(C)C1 (stereo not drawn),2.37
16,COc1ccc(/C=N/N=C2/CC(C)(C)Cc3nnc(O)cc32)cc1,-1.47
17,CCCOc1cccc(C(=O)N(Cc2ccccc2F)C2CCS(=O)(=O)C2)c1 (stereo not drawn),6.49
18,CNC(=O)C1CCN(c2nnc(C)c3c(C)n(-c4ccccc4)nc23)CC1,4.16
19,Cc1ccc(/C=C2\CCC(C3CCCC3)C2=O)o1 (stereo not drawn),4.79
20,O=C(NCc1ccco1)c1cccnc1-c1nc2ccccc2s1,9.92
21,COCCN(Cc1ccco1)C(=O)CSc1c2c(nc3cc(Cl)ccc13)CCCC2,1.62
22,CCOC(=O)c1cc(-c2ccc(OC)c(S(=O)(=O)N3CCC(Cc4ccccc4)CC3)c2)on1,1.09
23,COc1cccc(-n2nnnc2SCC(=O)Nc2sc3c(c2C#N)CCC(C(C)(C)C)C3)c1 (stereo not drawn),-5.96
24,CC1=C(C(=O)Nc2ccc(C)cc2)C(c2ccc(Cl)cc2)NC(=O)N1 (stereo not drawn),-5.92
25,Cc1ccc(-c2c(N(C)C3CCCC(C)C3C)c(=O)c2=O)cc1 (stereo not drawn),0.589

row,Compound,% Inhibition @ 10 uM [%]
1,COc1cc(/C=C(\C#N)c2nc3ccccc3n2C)cc(Br)c1O,31.8
2,Cc1ccccc1-c1noc(-c2nnn(-c3ccc(F)c(Cl)c3)c2N)n1,-0.485
3,CS(=O)(=O)N(CC(=O)N1CCN(c2ccccc2)CC1)c1cccc(Br)c1,5.73
4,Cc1ccc(CNCc2cccnc2)cc1,-4.03
5,COc1ccc(C(=O)N2CCN(C3CCCC3)CC2)cc1OC,-11.1
6,CC1CC(C)CN(C(=O)Nc2cccc3ccccc23)C1 (stereo not drawn),5.04
7,CC(C)CC/N=c1/c(-c2ccc(C(C)C)cc2)c(O)c1=O,0.0281
8,O=C(O)C1CCCN(C(=O)c2ccccc2)C1 (stereo not drawn),3.27
9,COc1cccc2cc(C(N)=O)cnc12,6.38
10,COc1ccccc1NC(=O)c1cc(N)cc(C(=O)Nc2ccccc2OC)c1,0.0285
11,O=C(Nc1cccc(-c2nc3ccccc3s2)c1)c1ccc(Br)cc1,5.35
12,O=C(c1ccncc1)N1N=C2CCCCCC2C1(O)C(F)(F)F (stereo not drawn),-3.34
13,COCCCNC(=O)C1CC(=O)OC1c1ccc(OC)c(OC)c1 (stereo not drawn),-2.92
14,CCOC(=O)/C(C#N)=C\c1ccc(C)cc1C,0.968
15,O=C1CC(SC2=NCCS2)C(=O)N1c1ccc(Br)cc1 (stereo not drawn),-1.37
16,CC(C(=O)Nc1nccs1)N1Cc2ccccc2C1=O (stereo not drawn),-2.13
17,CC1CCN(Cc2c(O)ccc3occ(C(=O)c4ccccc4)c23)CC1,2.46
18,CCOC(=O)c1c(C)[nH]c(C)c1S(=O)(=O)NCCCN1CCCC1=O,0.706
19,COCCNC(=O)c1ccc(CS(=O)(=O)Cc2ccc(C)cc2)o1,0.514
20,O=C(CNCc1ccccc1)NC12CC3CC(CC(C3)C1)C2,6.53
21,O=C(COc1ccc(Cl)cc1)Nc1ccccc1Br,-2.65
22,Cc1cc2cc(CNC(=S)NC3CCCCC3)ccc2n1C,-1.89
23,COc1ccc2c(Cl)c(C(=O)Nc3ccc(N(C)C(C)=O)cc3)sc2c1,5.83
24,Cc1cc(C)c(C(=O)c2ccc(C(=O)N3CCN(C)CC3)cc2)c(C)c1,0.215
25,CC(=O)N1CCc2nc3sc(C(=O)Nc4cc(C)on4)c(N)c3c(C(F)(F)F)c2C1,-3.34

row,Compound,% Inhibition @ 10 uM [%]
1,O=C(C1CCC(=O)N1Cc1ccc(F)cc1)N1CCC2(CC1)OCCO2 (stereo not drawn),-0.0542
2,O=C(O)CCc1nnc(O)c2[nH]c3ccc(Cl)cc3c12,1.81
3,CCOC(=O)c1cc(S(=O)(=O)N2CCN(Cc3ccccc3)CC2)cn1C,-2.84
4,O=C(Nc1ccccc1)Nc1cccc(C(F)(F)F)c1,1.33
5,Cc1ccc(-c2c(NCCN3CCN(Cc4ccccc4)CC3)c(=O)c2=O)cc1,-3.47
6,O=C(Nc1ccc(S(=O)(=O)Nc2cccc(F)c2)cc1)c1ccc(Br)o1,-3.39
7,Cc1ccccc1CCNC(=O)CCn1nc(C)c2c(C)n(-c3ccccc3)nc2c1=O,-4.38
8,O=c1c(CN2CCN(c3cccc(C(F)(F)F)c3)CC2)coc2ccccc12,-3.65
9,Cc1nnc(N2C(=O)c3oc4ccccc4c(=O)c3C2c2ccccc2F)s1 (stereo not drawn),-7.38
10,COc1cc(C2c3c(oc4ccccc4c3=O)C(=O)N2c2nccs2)cc(Br)c1O (stereo not drawn),3.12
11,C#CCSc1nc2c(c(=O)n1Cc1ccccc1)C1(CCCCC1)Cc1ccccc1-2,2.92
12,COc1ccc(Cc2nnc3sc(/C=C/c4cccc(C(F)(F)F)c4)nn23)cc1,-3.53
13,CCCC1CCc2c(sc(NC(=O)c3ccc(F)cc3)c2C(N)=O)C1 (stereo not drawn),-8.18
14,CC1(C)CC(=O)C2=C(C1)c1c(ccc3ccccc13)NC2c1ccccc1 (stereo not drawn),-0.736
15,COc1ccc2cc3cc(C(=O)NCCCN4CCN(C)CC4)sc3nc2c1,1.22
16,CCO/C(O)=C1\C(C)=Nc2nnnn2C1c1c[nH]c2ccccc12 (stereo not drawn),-1.81
17,Cc1nn(C)c(C)c1NC(=O)C12CC3CC(CC(C3)C1)C2,-1.02
18,Nn1c(SCC(=O)Nc2nncs2)nnc1-c1cccnc1,-1.24
19,O=C(COc1ccc(Cl)cc1Br)Nc1ccc(S(=O)(=O)N2CCOCC2)cc1,1.57
20,C=CCN1C(=O)C2(NC(CC)C3C(=O)N(c4ccc(Cl)cc4)C(=O)C32)c2ccccc21 (stereo not drawn),3.53
21,CCOC(=O)C1=CN(Cc2ccc(OC)cc2)C=C(C(=O)OCC)C1c1ccc(C)s1,-3.23
22,CC(C)C(NC1CCS(=O)(=O)C1)C(=O)O (stereo not drawn),37.3
23,Cc1cccc(NC(=O)C(O)c2ccccc2)c1 (stereo not drawn),1.63
24,COc1ccc(C(=O)NC2(C(F)(F)F)C(=O)Nc3c2c(=O)[nH]c(=O)n3-c2ccccc2)cc1 (stereo not drawn),-5.23
